Laboratory results from paper PMC12040169 (PLOS Biology, 2025).
This is one part of the list.

test system: T1, C. trachomatis L2/434/Bu expressing GFP (CTL2-GFP); parameters: species or system HeLa; C. trachomatis total inclusion area by high-content imaging, normalised to DMSO; conditions: total inclusion area; 28.5 h, 10 µM; inhibitor
T1 construct: L2/434/Bu GFP intracellular growth in HeLa cells
Summary of the method: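 Imaging read-out: GFP inclusions and Hoechst nuclei captured by high-content imaging after fixation. Inclusion area/number = chlamydial growth; nuclei count = host cell viability. MIC calculated per earlier method.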

Compound | % of control remaining
O=C(CSCc1ccc(Br)cc1)Nc1ccc(S(=O)(=O)N2CCOCC2)cc1 [CBK267845] | 101.859
Cc1nc(CN2CCN(c3ccc4nnnn4n3)CC2)cs1 [CBK306056] | 70.1644
O=C(CSc1ccc2nnc(-c3ccc(F)cc3)n2n1)N1CCCC1 [CBK287519] | 93.4781
O=C1CN(Cc2nc(-c3cccc(C(F)(F)F)c3)no2)CCN1 [CBK306038] | 25.5265
COc1ccc(-c2ccc(OC3CCNCC3)cc2)c(OC)c1 [CBK093816T] | 68.588
O=C(O)c1cccnc1SCc1cc2c(cc1Cl)OCO2 [CBK287178] | 95.5681
N#Cc1c(NC(=O)CSc2nc(=O)cc(N)n2CCc2ccccc2)sc2c1CCCC2 [CBK293993] | 107.587
c1sc(C2CN3CCCC3CO2)nc1C1CCCC1 (stereo not shown) [CBK304814] | 93.8646
COc1ccc(C)cc1S(=O)(=O)Nc1cc(NCCCN2CCOCC2)c2occc2c1 [CBK067837C] | 70.2337
c1ccc2[nH]c(SCCN3CCOCC3)nc2c1 [CBK262593] | 85.1746
COCCN(Cc1cnn(C)c1)C(=O)NCc1nc2c(C)cccc2o1 [CBK307642] | 53.6405
O=C(O)C1C2C=CC(C2)C1C(=O)NCc1ccncc1 (stereo not shown) [CBK265403] | 103.735
Cc1sc2c(C3CCN(C(=O)C4CC4C)CC3)nc(C)n2c1C (stereo not shown) [CBK285299] | 45.4673
COc1ccc(Cl)cc1-c1noc(Cn2nc(C)c(Cl)c2C)n1 [CBK269813] | 88.8495
Cc1cc(C)cc(NC(=O)c2ccc(CSc3nnc(N)s3)cc2)c1 [CBK266609] | 83.1605
COC(=O)/C=C/c1cccc(-c2cnc(N)c(-c3ccc(O)cc3)n2)c1 [CBK125689] | 118.656
O=C(c1cncnc1)N1CCC2(CCN(C(=O)c3cc(F)c(F)cc3F)C2)C1 (stereo not shown) [CBK131405] | 108.593
OC(CNCc1cccs1)c1ccccc1 (stereo not shown) [CBK057092] | 57.0953
COc1ccc(C(C)C)cc1-c1cncc(N2CCN(Cc3ccccn3)CC2)n1 [CBK065792] | 87.0061
CN(C)c1nc(-c2cc(C(F)(F)F)cc(C(F)(F)F)c2)ccc1C(=O)NCc1ccco1 [CBK106094] | 80.2063
Cc1c(C(=O)C2=C(O)C(=O)N(CCCN(C)C)C2c2ccccn2)cnn1-c1ccccc1 (stereo not shown) [CBK266516] | 97.7655
Cc1cc(C2CCCCCN2S(=O)(=O)c2ccc3[nH]c(=O)[nH]c(=O)c3c2)no1 (stereo not shown) [CBK286404] | 92.579
CCN(CC)C(=O)Cn1ncc2c3sc(C)cc3n(CC)c2c1=O [CBK284167] | 61.9074
CC(=O)Nc1ccccc1NC(=O)COc1ccc(Br)cc1C [CBK265072] | 122.463
COCc1cn([C@H]2CO[C@H]3[C@@H]2OC[C@H]3OC(=O)Nc2ccc(C)cc2)nn1 [CBK289489] | 83.3808
Nc1ncnc2c1ncn2[C@@H]1O[C@H](CCl)[C@H](O)C1O (stereo partly shown) [CBK201252] | 76.9805
Cc1ccc(S(=O)(=O)Nc2ccc(C3(c4ccc(NS(=O)(=O)c5ccc(C)cc5)cc4)c4ccccc4-c4ccccc43)cc2)cc1 [CBK261154] | 86.2674

Compound | % of control remaining
Cc1nn(CC(=O)NC(C)(C)C)c(=O)c2cc3sccc3n12 [CBK284021] | 91.3799
O=C(/C=C/c1ccco1)Nc1cccc2c(NC(=O)/C=C/c3ccco3)cccc12 [CBK264974] | 102.055
COc1ccc(OC)c(C2C(C(=O)c3ccc(C)cc3)=C(O)C(=O)N2Cc2cccnc2)c1 (stereo not shown) [CBK264492] | 113.904
Cc1cc(NC(=O)c2cc3ccccc3oc2=O)nc2c1c(=O)oc1ccccc12 [CBK287445] | 104.275
Cc1cc(Cl)cc(C)c1NS(=O)(=O)c1ccc(N2CCCNCC2)c2ccccc12 [CBK004433C] | 51.8973
COc1cccc(CN(Cc2ncc[nH]2)Cc2ccco2)c1 [CBK282496] | 119.204
CN1CCc2c(sc3nc(SCc4cccc5ccccc45)n(-c4ccccc4)c(=O)c23)C1 [CBK264556] | 94.638
O[C@@H]1C[C@@H](c2nc(-c3ccccn3)no2)N(Cc2ccccc2)C1 [CBK288900] | 105.062
Cc1[nH]c2ccccc2c1C(=O)C(=O)Nc1ccc(C#N)cc1 [CBK269896] | 95.985
CC1(C)CC(=O)N(C2CCCCC2)C(=O)C1C#N (stereo not shown) [CBK009894] | 108.388
CCCCN(C=O)c1c(CC)nc2c(OCCOc3ccc(F)cc3)cccn12 [CBK147631] | 118.069
COC(=O)CCc1ccc(S(=O)(=O)N2CCCN(Cc3cccc(Br)c3)CC2)cc1 [CBK062981] | 85.8333
COc1ccc(C(=O)N2CCC3(CCN(Cc4cc(=O)[nH]c(=O)[nH]4)C3)C2)cc1OC (stereo not shown) [CBK132162] | 85.8688
O=C(Cn1ccnc1)N1CCCCC1c1nc2ccccc2[nH]1 (stereo not shown) [CBK283936] | 92.6063
CC(C)C(=O)N1CCC(c2nc3ccccn3c2NC(C)(C)C)CC1 [CBK284745] | 114.833
CCCC(=O)Nc1nnc(-c2ccc(C)cc2C)o1 [CBK287700] | 94.2832
COc1ccc(F)c(CN(CC(C)(C)CN)C(=O)Nc2ccccc2C(F)(F)F)c1 [CBK002412C] | 84.2164
CCN1CCC(NC(=O)CSc2nc3ccccc3n2CCOC)CC1 [CBK306100] | 55.585
O=C(Nc1cccc2ccccc12)C1CCCN1S(=O)(=O)c1ccc(F)cc1 (stereo not shown) [CBK138924] | 72.3475
Cc1cc(N2CCCC2)ccc1NC(=O)CCn1c(-c2cccs2)n[nH]c1=S [CBK297883] | 125.774
CCOC(=O)c1nc(N)oc1C [CBK056636] | 7.711
CN(Cc1ccc(-c2ccc(S(C)(=O)=O)cc2)nc1)C1CCNCC1 [CBK163942] | 110.212
Cc1cc(/C=N/NC(=O)c2ccc(CN3CCOCC3)cc2)c(C)n1-c1ccccc1 [CBK263329] | 104.926
Cc1ccccc1COc1cccn2c(N(C)CC3CCCO3)c(C)nc12 (stereo not shown) [CBK147231] | 88.3155
CCN(CC(=O)NCc1ccc(F)cc1)C(=O)c1ccc(C#N)cc1 [CBK305841] | 119.214
CN(CCC#N)S(=O)(=O)c1ccc(OC(F)(F)F)cc1 [CBK044415] | 92.1519
O=C(Nc1ccc(NC(=O)c2cc3ccccc3o2)cc1)c1ccc(-c2cccc([N+](=O)[O-])c2)o1 [CBK268579] | 132.822

Compound | % of control remaining
COc1cccc(N2CCC(=O)N2)c1 [CBK087441] | 84.2016
Oc1cccc(Sc2cc(N3CCCC3)ncn2)c1 [CBK093749] | 100.332
Cc1nn(C)cc1-c1cncn1CCCN1CCCCC1 [CBK281493] | 77.548
Cc1cc(C)n(CC(=O)N2CCOC(c3ccccc3Cl)C2)n1 (stereo not shown) [CBK304927] | 68.4289
Cc1cc2ccccc2n2c(SCC(=O)NCCc3ccccc3)nnc12 [CBK265682] | 87.3701
O=C(CSc1nc(O)cc(O)n1)Nc1ccc(I)cc1 [CBK269467] | 108.394
CCCn1c(SCc2csc(CC(=O)Nc3ccccc3C)n2)n[nH]c1=O [CBK296969] | 102.722
Cc1ccc2c(c1)c(NS(C)(=O)=O)nn2Cc1ccc(C#N)cc1 [CBK048643] | 88.7151
CN(C)C1Cc2cccc3nc(S(C)(=O)=O)n(c23)C1 (stereo not shown) [CBK007942] | 73.6712
Cc1nn(C)cc1CN1CCCC1c1nc(N(C)C)ncc1-c1cccc(Cl)c1 (stereo not shown) [CBK286501] | 90.2414
Cc1cc(Br)ccc1C(=O)N1CC(C(N)=O)CCC1C (stereo not shown) [CBK305954] | 5.586
Cc1ccn(CCC(=O)N2CCC[C@@H]3NC(=O)c4ccccc4OCC/C=C/C[C@@H]32)n1 [CBK292082] | 117.437
O=C(CCS(=O)(=O)c1ccccc1)Nc1ccccc1N1CCNCC1 [CBK028285T] | 94.8459
N#Cc1cccc(Nc2cncc(-c3cccc(C(=O)NCCO)c3)n2)c1 [CBK037810] | 113.746
CC1(C)CCCC1NC(=O)NCc1cccc(-c2nnc[nH]2)c1 (stereo not shown) [CBK305236] | 54.5618
Cc1cc(OCC2CCN(C(=O)OC(C)(C)C)CC2)ccc1Br [CBK175091] | 104.065
O=C(CC1CC2CCC1C2)N1CCC(O)(c2ccccn2)CC1 (stereo not shown) [CBK283833] | 94.0557
Cc1nc(C)c(C(=O)NCCN2CC(C)CC(C)C2)s1 (stereo not shown) [CBK283071] | 101.579
OCCNc1ncnc2c1cnn2-c1ccccc1 [CBK077741C] | 59.7895
CC(=O)NC(c1nccs1)C1CCCN(CC2CCCCC2)C1 (stereo not shown) [CBK285152] | 102.941
Cc1ccc2ncc(C(=O)Nc3ccc(F)cc3F)c(=O)n2c1 [CBK287286] | 110.85
Cc1noc(C)c1S(=O)(=O)NCCc1c[nH]c2ccccc12 [CBK067311] | 93.7432
COc1ccc([C@@]23CC[C@@H](NC(=O)c4ccc(Br)c(C)c4)C[C@@H]2N(C)CC3)cc1OC [CBK076656T] | 82.7146
c1cnc(N2CCNCC2)c(OC2CCCCC2)n1 [CBK001837C] | 84.3584
CC(=O)N[C@H](C(=O)N1CC[C@H]2NC(=O)[C@@H](Cc3ccccc3)NC(=O)C3(C/C=C/C[C@H]2C1)CCOCC3)[C@@H](C)OC(C)(C)C [CBK292203] | 96.934
